# Assay results: PubChem BioAssay AID743255 (National Center for Advancing Translational Sciences (NCATS), 2014)
# Among all 390,000 compounds or so, about 910 (0.23%) were called active. Another 5% or so got no clear call; they are omitted. The call rests on the fitted dose curve; in most records, active means well fitted inhibition curve with a large enough effect; inconclusive means small, poorly fitted or top-dose-only effect; inactive means no such curve, though single readings can be large or run the other way. The list shows a part of the results, in another mix than the full data.
# Biological target: Ubiquitin carboxyl-terminal hydrolase 1 (Homo sapiens) (UniProt O94782)
# UniProt O94782, sequence (O94782 whole entry, looked up): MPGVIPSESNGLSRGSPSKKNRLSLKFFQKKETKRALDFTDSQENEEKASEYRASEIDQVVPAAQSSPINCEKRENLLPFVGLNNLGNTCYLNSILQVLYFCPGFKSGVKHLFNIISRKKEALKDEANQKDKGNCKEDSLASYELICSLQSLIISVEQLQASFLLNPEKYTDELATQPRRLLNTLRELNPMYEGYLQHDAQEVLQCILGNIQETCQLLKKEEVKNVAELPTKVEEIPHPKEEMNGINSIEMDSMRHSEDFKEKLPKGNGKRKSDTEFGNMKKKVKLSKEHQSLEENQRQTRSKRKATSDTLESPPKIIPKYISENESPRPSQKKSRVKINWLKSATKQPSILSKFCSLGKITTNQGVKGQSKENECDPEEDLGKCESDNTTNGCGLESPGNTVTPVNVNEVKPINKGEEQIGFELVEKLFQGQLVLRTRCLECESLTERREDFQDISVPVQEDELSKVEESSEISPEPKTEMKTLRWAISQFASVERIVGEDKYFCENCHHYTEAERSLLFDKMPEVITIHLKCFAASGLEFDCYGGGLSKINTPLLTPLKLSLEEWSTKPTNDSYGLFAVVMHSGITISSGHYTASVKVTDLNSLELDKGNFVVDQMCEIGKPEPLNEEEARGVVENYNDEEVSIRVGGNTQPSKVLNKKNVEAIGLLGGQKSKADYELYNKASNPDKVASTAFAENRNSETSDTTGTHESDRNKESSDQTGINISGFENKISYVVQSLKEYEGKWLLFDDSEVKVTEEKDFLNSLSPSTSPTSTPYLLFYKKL
# Assay: Inhibitors of USP1/UAF1: Primary Screen; further: nearly all actives have a fitted effect of over 60% in size
# Settings: recombinant USP1/UAF1, Ub-Rhodamine cleavage fluorescence; activity change, negative = inhibition: at 57.1 µM (top of the series)
# Outline: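 Step one: compound is pinned into 1nM USP1/UAF1 in HEPES pH 7.8 buffer with TCEP. Step two: 15 min room-temperature incubation. Step three: Ub-Rho (150nM final) starts cleavage, tracked by fluorescence over six one-minute reads.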
# On the % scale 0 is the no-effect control and ±100 the full control effect; potency means the concentration at half of the fitted maximal effect.
SMILES,Potency,"activity change, negative = inhibition"
CN1/C(=C\C=C2\N=C(c3ccc(F)cc3)OC2=O)C(C)(C)c2ccccc21,active: 28.2 µM,–
CCOC(=O)[C@@H]1[C@H]2COc3ccccc3[C@@H]2N2C(=O)N(c3ccc(OC)cc3)C(=O)[C@@]12C,–,inactive: -12.1%
OCC[n+]1ccc(/C=C/c2c[nH]c3ccccc23)cc1,active: 28.2 µM,–
Cc1cc(C)c2oc(C(=O)Nc3ccc(S(=O)(=O)N4CCC(C)CC4)cc3)cc(=O)c2c1,–,inactive: -10.7%
CCCN(C)C[C@H]1Oc2ncc(Br)cc2C(=O)N([C@@H](C)CO)C[C@@H]1C,–,inactive: -18.5%
C=CC[C@@H](CC(=O)N[C@@H](CO)Cc1ccccc1)C(=O)N[C@H](COC(=O)[C@@H](CC=C)CC(=O)OC(C)(C)C)Cc1ccccc1,–,inactive: -17%
Cc1ccc(S(=O)(=O)NC2(C(F)(F)F)NC(=O)N(CCc3ccccc3)C2=O)cc1 (stereo not drawn),–,inactive: -9.87%
O=C(Cc1ccccc1)NC1CC(=O)N(c2ccccc2)C1 (stereo not drawn),–,inactive: 39.2%
C[C@H](CO)N1C[C@H](C)[C@@H](CN(C)Cc2ccc3c(c2)OCCO3)OCc2cnnn2CCCC1=O,–,inactive: -28%
Cc1ccc2c(c1)c(=O)c1c3n2CCN(C(=O)CCl)C3CC1 (stereo not drawn),active: 31.6 µM,–
CC(=O)Nc1ccc(C2=NNC(=Nc3cccc(S(=O)(=O)N(C)C)c3)SC2)cc1,active: 10 µM,–
O=C1Nc2ccccc2/C1=C/c1cnc(-c2ccccc2)[nH]1,–,inactive: 149%
C[C@@H]1CN([C@@H](C)CO)C(=O)CCCn2nncc2CO[C@@H]1CN(C)S(=O)(=O)c1ccc(Oc2ccccc2)nc1,–,inactive: 3.26%
C[C@H]1CN([C@@H](C)CO)C(=O)CCCn2nncc2CO[C@@H]1CN(C)Cc1ccc(Oc2ccccc2)cc1,–,inactive: -19%
Cc1c(CCNC(=O)c2ccco2)sc2nc(-c3ccc(F)cc3)nn12,–,inactive: -2.72%
COc1ccccc1/C=C1\NC(=S)N(CC2CCCO2)C1=O (stereo not drawn),–,inactive: 7.2%
C[N+]1(C)CCC(=C2c3ccccc3CC(=O)c3sccc32)CC1,active: 28.2 µM,–
C[C@H]1COC(=O)[C@H](Cc2ccc(F)cc2)C/C=C\C[C@@H](CC(=O)NCCO)C(=O)N1,–,inactive: -27%
COc1ccc(NC(=O)Cn2nc(C(F)(F)F)c3c2CCCC3)cc1OC,–,inactive: -20.3%
N#C/C(=C\N1CCN(Cc2ccc3c(c2)OCO3)CC1)c1nc2ccccc2s1,active: 31.6 µM,–
O=C1C=CC(=O)c2c(O)c(CO)c(CO)c(O)c21,active: 14.1 µM,–
O=C1C(Cl)=C(NCCN2CCCCC2)C(=O)c2ccccc21,active: 17.8 µM,–

SMILES,Potency,"activity change, negative = inhibition"
COC(C[C@@H]1O[C@@H]1[C@@H](O)COCc1ccccc1)OC,–,inactive: -29.1%
C[C@H](CO)N1C[C@H](C)[C@H](CN(C)Cc2ccccc2)Oc2ncc(Br)cc2C1=O,–,inactive: 8.11%
CCOc1ccccc1NC(=O)CSc1cc(=O)n(CC)c2ccccc12,–,inactive: 41.9%
CCCCNC(=O)COC(=O)c1c2c(nc3ccccc13)/C(=C/c1cccs1)CC2,–,inactive: -2.46%
CCN(CC)S(=O)(=O)c1cccc(C(=O)NC(C(=O)NC2=NCCS2)C(C)C)c1 (stereo not drawn),–,inactive: -0.318%
Cc1cccc(N(C)S(=O)(=O)c2ccc3c(c2)NC(=O)CC(=O)N3)c1,–,inactive: -14.3%
CCc1nc2ccc(C(=O)N3CCN(c4cccc(Cl)c4)CC3)cc2nc1CC,–,inactive: -23.1%
CCOC(=O)CC(=O)CSc1nc2ccc(C)cc2cc1C#N,active: 28.2 µM,–
Cc1ccc([C@@H]2[C@@H]3C(=O)N(C)C(=O)[C@@H]3[C@]3(C)C(=O)N(Cc4ccccc4)CC(=O)N23)o1,–,inactive: 23.3%
O=C(Nc1ccccc1F)C(=Cc1sc(N2CCOCC2)nc1-c1ccccc1)C(=O)Nc1ccccc1F,–,inactive: 277%
CCC(C)N1C(=O)/C(=C/c2c(NCCCOC(C)C)nc3c(C)cccn3c2=O)SC1=S (stereo not drawn),–,inactive: 27.6%
C/C=C(\C)C(=O)NCCN1C2=NC[C@@H](Cc3ccccc3)N2C[C@H]1Cc1ccc(O)cc1,–,inactive: -26%
CCc1ccc(NC(=O)C2=CC(c3cccs3)=NS(=O)(=O)N2C)cc1,–,inactive: -16.1%
C[C@H](NC(=O)c1ncn(C)c1C(=O)N[C@@H](C)c1ccccc1)c1ccccc1,–,inactive: -17.9%
C=CC[C@H](CC(=O)NCCO)C(=O)N[C@H](COC(=O)[C@@H](CC=C)CC(=O)OC(C)(C)C)Cc1c[nH]c2ccccc12,–,inactive: -12%
C[C@@H]1COC(=O)[C@H](CC(=O)OC(C)(C)C)C/C=C\C[C@H](CC(=O)NCCO)C(=O)N1,–,inactive: -0.622%
CCn1cc(C(=O)N2CCN(c3ccccc3)CC2)c(=O)c2cc(S(=O)(=O)N3CCOCC3)ccc21,–,inactive: -8.55%
O=C1C=C(Nc2cccc3cccnc23)c2ccccc2C1=O,active: 17.8 µM,–
CCOc1ccc(Cn2c(=O)sc3ccccc32)cc1,–,inactive: -24.8%
CCO[C@H]1c2c(ccc3ccc(=O)oc23)OC(C)(C)[C@@H]1O,–,inactive: -4.41%
CN(C)c1ccc(/C=C(\C#N)C(=O)Nc2nc3c(s2)CCN(Cc2ccccc2)C3)cc1,active: 4.47 µM,–
CCc1ccc(CNc2ccc(O)cc2)cc1,active: 28.2 µM,–

SMILES,Potency,"activity change, negative = inhibition"
Nc1cccc2cc(S(=O)(=O)O)ccc12,active: 7.08 µM,–
CCN(CC)c1ccc(/C=C2\C(=O)c3ccc(C(=O)O)cc3C2=O)cc1,active: 14.1 µM,–
C=C(C)C(=O)Nc1cccc(C2=NOC3(C2)C[C@@H](C(N)=O)N(C(=O)C2(C)CC2)C3)c1 (stereo partly drawn),–,inactive: 31.5%
CCOC(=O)/C(=C\C=C1/Sc2cc(OCC)c(OCC)cc2N1CC)C(C)=O,active: 25.1 µM,–
OC[C@@H](O)[C@@H](O)[C@H](O)[C@@H](O)CO,–,inactive: -9.92%
C[C@@H]1CN([C@@H](C)CO)C(=O)CCCn2nncc2CO[C@@H]1CN(C)C(=O)Nc1ccccc1F,–,inactive: -19.6%
O=c1ccc(-c2ccccc2)nn1Cc1ccc(F)cc1Cl,–,inactive: -15%
C[C@H]1CCC[C@]2(O[C@@H](CCO)C[C@@H](O)[C@@H]2O)O1,–,inactive: -23.4%
Nc1ccc(S(=O)(=O)O)cn1,inactive,–
CC(C)CCN(C(=O)Nc1ccccc1)C(C)c1cccs1 (stereo not drawn),–,inactive: -19.4%
C[C@H](CO)N1C[C@H](C)[C@H](CN(C)S(=O)(=O)c2ccc(-n3cccn3)cc2)OCc2cnnn2CCCC1=O,–,inactive: -11.7%
COC(C/C=C\[C@H](O)COCc1ccccc1)OC,–,inactive: -29.7%
O=C(NCc1cccs1)C1CCCN1S(=O)(=O)c1ccccc1F (stereo not drawn),–,inactive: -13.1%
C[C@@H]1CN(S(=O)C(C)(C)C)[C@@H](CCO)/C1=C\c1ccccc1 (stereo partly drawn),–,inactive: -28.1%
COC(=O)c1ccc(NC(=O)CN2CCN(S(=O)(=O)c3ccc(Br)cc3)CC2)cc1,–,inactive: -16.6%
COc1ccc(/C=C2\NC(=S)N(CC3CCCO3)C2=O)c(OC)c1 (stereo not drawn),–,inactive: 36.1%
C=CCC[C@@H](Cc1ccc(F)cc1)C(=O)OC[C@H](C)NC(=O)[C@@H](CC=C)CC(=O)N(CCO)Cc1ccccc1,–,inactive: -20.5%
C[C@H]1NC(=O)[C@]2(C)[C@@H](c3ccccc3)[C@H]3COc4ccccc4[C@@H]3N2C1=O,–,inactive: -20.7%
C[C@H]1CN([C@@H](C)CO)C(=O)CCCn2cc(nn2)CO[C@@H]1CN(C)S(=O)(=O)c1ccc2ccccc2c1,–,inactive: -16.8%
C[C@@H]1CN([C@H](C)CO)C(=O)CCCn2nncc2CO[C@H]1CN(C)Cc1cccc(C(F)(F)F)c1,–,inactive: -2.24%
CN1C(=O)/C(=C/C=C2/CCCN2C)N(C)C1=S,–,inactive: -26.2%
Cc1ccc(OC(=O)N(C)C[C@@H]2OCc3cn(nn3)CCCC(=O)N([C@H](C)CO)C[C@H]2C)cc1,–,inactive: -21.2%

SMILES,Potency,"activity change, negative = inhibition"
C#C[C@]1(O)CC[C@H]2[C@@H]3CCC4=CC(=O)CC[C@@H]4[C@H]3CC[C@@]21C,–,inactive: -14.9%
C=CC[C@@H](CC(=O)N(CCO)Cc1ccccc1)C(=O)N[C@H](COC(=O)[C@@H](CC=C)CC(=O)OC(C)(C)C)Cc1ccccc1,–,inactive: -24%
CCC1CN(C(=O)N2CCC(C(=O)NCCc3ccc(OC)c(OC)c3)CC2)c2ccccc2O1 (stereo not drawn),–,inactive: -20.6%
COc1ccc(-c2nn(C)c3sc(C(=O)NCCN(C)C)cc23)cc1OC,–,inactive: -11.3%
CCC1CCCCN1CCCNC(=O)c1ccc2c(c1)c(C)c(C)n2CC (stereo not drawn),–,inactive: -6.05%
Cn1c(=O)c(=O)n(C)c2cc(S(=O)(=O)CCC(=O)Nc3ccc(F)cc3)ccc21,–,inactive: -7.34%
CC(=O)Nc1ccc(NC(=O)CSc2nc3ccccc3nc2N2CCC(C)CC2)cc1,–,inactive: -10%
Cc1ccc(-c2cc(C(F)(F)F)c(C#N)c(SCC(=O)Nc3ccccc3)n2)cc1,–,inactive: 33.6%
C[C@@H]1CN([C@H](C)CO)C(=O)CCCn2nncc2CO[C@H]1CN(C)S(=O)(=O)c1ccccc1F,–,inactive: -6.42%
CCc1c(C)nc(SCC(=O)N2CCN(c3ccccc3OC)CC2)[nH]c1=O,–,inactive: -9.81%
COc1ccc(C(=O)Nc2ccc3nc4n(c(=O)c3c2)CCCCC4)cc1OC,–,inactive: -22.6%
CCCCCC(=O)N1C[C@@H](n2cc(-c3ccc(F)cc3)nn2)[C@H](O)C[C@@H]1c1ccc(C)cc1,–,inactive: -13%
CCN1C(=O)/C(=C\c2nc3ccccc3c(=O)n2-c2ccccc2)c2ccccc21,–,inactive: -27%
OCC[C@@H]1C[C@@H](O)[C@H](O)[C@@]2(CCCO2)O1,–,inactive: -22.7%
O=C(NC1CC1)C1=C[C@H](c2coc3ccccc3c2=O)C[C@H](OCCCCO)O1,–,inactive: -25.1%
O=C1N[C@H](Cc2ccccc2)COC(=O)[C@H](Cc2ccc(F)cc2)CC/C=C/C[C@@H]1CC(=O)N(CCO)Cc1ccccc1,–,inactive: -18.2%
CCOC(=O)/C=C1\SCC(=O)N1CC(=O)Nc1ccc2c(c1)CCC2,–,inactive: -0.916%
CCOC(=O)[C@@H]1[C@H]2COc3ccc(Br)cc3[C@@H]2N2C(=O)N(c3cccc(F)c3)C(=O)[C@@]12C,–,inactive: -22%
O=C(NCc1cccc(C(F)(F)F)c1)c1cccc2c1C(=O)c1ccc(N3CCC(Cc4ccccc4)CC3)cc1S2(=O)=O,active: 25.1 µM,–
CC(=O)c1cccc(NC(=O)c2ccc3c(c2)CCN3S(=O)(=O)c2ccccc2)c1,–,inactive: -12.8%
Cc1ccc(NC(=O)c2nc[nH]c2C(=O)N[C@@H](C)c2ccccc2)cc1,–,inactive: -21.8%
C[C@H]1COC(=O)[C@H](NC(=O)OCC2c3ccccc3-c3ccccc32)C/C=C\C[C@H](CC(=O)N(CCO)Cc2ccccc2)C(=O)N1,–,inactive: -4.71%
